In all, about 150,000 compounds went through this assay and about 540 (0.36%) showed an effect of 50% or more. The list shows a part of the results.
These molecules were tested on Plasmodium falciparum (assay: Primary screen in NF54 nanoGlo assay, in single point, at 2uM, 72h; a lower Z score goes with more inhibition). Details: timepoint 72 hour.
Format: functional, Erythrocyte

Compound | % Inhibition [%] | Z score
CC(CCc1cccn1C)NC(=O)[C@H](O)c1ccccc1Cl (stereo partly specified) | -4 | 0.71
Cn1ccnc1[C@H](NC(=O)CC1(O)CCCC1)c1ccc(F)cc1F | -4 | 0.69
CC1=C(C)CN(S(=O)(=O)c2ccc(N3CCCC3=O)cc2)CC1 | -11 | 1.78
COCCN1CC(=O)N[C@H]2CN(c3cc(C4CC4)ncn3)C[C@@H]2OCc2cccc(c2)Oc2cncc(c2)C1=O | -21 | 4.08
CC1CC(NC(=O)c2ccncc2Cl)CN1Cc1ccccc1 (stereo unspecified) | 6 | -0.71
N#Cc1ccccc1CN1CCC[C@H](N2CCCC2)C1=O | -11 | 1.41
Cc1noc(C)c1S(=O)(=O)N(CCc1nccs1)C(C)C | 6 | -0.77
CC(C)(C)OC(=O)N[C@H](c1ccccc1)C(C)(C)C(=O)O | -5 | 0.49
CCOc1ccc(NCC(=O)n2nc(C)cc2C)cc1 | 2 | -0.38
COc1ccc(F)c(F)c1C(=O)NC[C@@H](C(C)C)N(C)C | -12 | 1.62
COC(=O)c1ccc(S(C)(=O)=O)cc1NC(=O)COC(C)C | -1 | 0.29
O=C(Cc1c[nH]c2ccccc12)Nc1nc(-c2c(F)cccc2F)cs1 | -8 | 0.68
Cc1cccc(C(=O)N2CCC[C@H](n3ccnn3)C2)n1 | -19 | 3.49
COC1CCN([C@H]2CCC[C@H]2N(C)C(=O)Nc2cc(Cl)ccc2N(C)C)C1 (stereo partly specified) | -3 | 0.49
C[C@H]1CC(=O)Nc2ccccc2N1C(=O)CNc1cccc(OCc2ccc(F)cc2)c1 | -5 | 0.63
Clc1cccc(Cc2nc(-c3ccc4nncn4c3)no2)c1 | -5 | 0.89
CCC1CCC(N[C@H]2CCS(=O)(=O)C2)CC1 (stereo partly specified) | -3 | 0.35
Cc1cnc(NC(=O)[C@H]2CC2(F)F)s1 | 8 | -1.02
Cc1cc(CN2CCCn3nc(CN4CC[C@H](F)C4)cc3C2)oc1C | 12 | -1.46
CCOC1(OCC)[C@@H](c2ccccc2)C(C#N)(C#N)C1(OCC)OCC | -33 | 3.83
C=CCNC(=O)c1ncc(Br)cc1Br | -11 | 1.29
CC(NC(=O)N1CCC[C@@H]1CO)c1cccc(-n2cccn2)c1 (stereo partly specified) | 5 | -0.74

Compound | % Inhibition [%] | Z score
O=C(NC1CCOCC1)c1ccc(NCc2cccc(F)c2F)cc1 | -5 | 0.46
O=C(Cn1c(=O)ccc2cc(S(=O)(=O)N3CCCC3)ccc21)NCc1ccco1 | -1 | 0.25
COC[C@@H](c1ccccn1)N(C)C(=O)CN1CCCCC1=O | -16 | 2.22
O=c1c2c(ncn1C[C@H]1CCC3(CCCCC3)O1)CCC2 | -1 | 0.12
CC(C)(C)OC(=O)N1CCC(N(CCCO)Cc2ccccn2)CC1 | -7 | 1.02
CCCc1cc(=O)n(-c2ccc(C(=O)N(C)C[C@H]3CC(=O)N(CC)C3)cc2)[nH]1 | -11 | 1.99
C[C@@H](Cc1ccc2c(c1)OCO2)CN1CCC2(CC1)N=C(N(C)C)NC2=O | -14 | 2.46
COc1cccc2nc(C[C@H]3CN(C(=O)CC(C)C)CC[C@H]3CC(=O)O)[nH]c12 | -11 | 1.37
CC(C)Cn1ccnc1NC(=O)Cc1cncc(O)c1 | 5 | -0.95
COc1ccc(OC)c(-c2csc(NC(=O)CCCOc3ccccc3)n2)c1 | -13 | 1.33
O=C(CCC1CCN(C(=O)c2cccc(F)c2O)CC1)NC1CC1 | -15 | 1.45
Cc1noc(C)c1CS(=O)(=O)CC(=O)N[C@@H](C)c1ccccc1 | 8 | -1.04
COc1ccc2[nH]c3c(c2c1)CCN(C(=O)NC1CCCC1)[C@@H]3c1ccc(C)cc1 | 18 | -2.12
CC(C)NS(=O)(=O)c1cc(C#N)ccc1N1CC[C@H](N(C)C)C1 | -10 | 1.01
Cc1ccc(NC(=O)N2CCCCCCN(C)C(=O)CC2)cc1C | -4 | 0.7
c1ccc([C@@H](NCc2cnc3n2CCCC3)c2nnc[nH]2)cc1 | -1 | 0.13
Cc1ccc(C(=O)NC2CCC3(CC2)C[C@@H]3N)c(C(C)C)n1 (stereo partly specified) | 4 | -0.62
Cc1ccnc2nc(C(=O)N(C)c3ccc(Cl)cn3)nn12 | 24 | -1.23
Cc1ccc(S(=O)(=O)NC(=O)C2CC2C)cn1 (stereo unspecified) | -5 | 0.68
COc1cc2c(cc1OC)CN(C(=O)CN(C1CCCC1)C1CCCC1)CC2 | 0 | 0.07
Cc1ccc(-c2noc(CCNC(=O)[C@@H](C)Cn3cncn3)n2)cc1 | -7 | 1.43

Reference: ChEMBL document CHEMBL4888484, “Replenishing the malaria drug discovery pipeline: Screening and hit evaluation of the MMV Hit Generation Library 1 (HGL1) against asexual blood stage Plasmodium falciparum ,using a nano luciferase reporter read-out” (2022)
